# Measurements published in article PMC4336329 (PLoS ONE, 2015).
# Among all 310,000 compounds or so, about 14,000 (4.5%) showed an effect of 50% or more. Effects have a minus sign here. Some of the results follow.
# Biological target: human ether-à-go-go-related gene (hERG) potassium channel (human, UniProt Q12809)
# Test: primary screen, population patch clamp on CHO cells stably expressing hERG
# 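Also: peak tail current of the secondary pulse compared with the same well before compound.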
# Chain of human ether-à-go-go-related gene (hERG) potassium channel (Q12809 whole entry, looked up): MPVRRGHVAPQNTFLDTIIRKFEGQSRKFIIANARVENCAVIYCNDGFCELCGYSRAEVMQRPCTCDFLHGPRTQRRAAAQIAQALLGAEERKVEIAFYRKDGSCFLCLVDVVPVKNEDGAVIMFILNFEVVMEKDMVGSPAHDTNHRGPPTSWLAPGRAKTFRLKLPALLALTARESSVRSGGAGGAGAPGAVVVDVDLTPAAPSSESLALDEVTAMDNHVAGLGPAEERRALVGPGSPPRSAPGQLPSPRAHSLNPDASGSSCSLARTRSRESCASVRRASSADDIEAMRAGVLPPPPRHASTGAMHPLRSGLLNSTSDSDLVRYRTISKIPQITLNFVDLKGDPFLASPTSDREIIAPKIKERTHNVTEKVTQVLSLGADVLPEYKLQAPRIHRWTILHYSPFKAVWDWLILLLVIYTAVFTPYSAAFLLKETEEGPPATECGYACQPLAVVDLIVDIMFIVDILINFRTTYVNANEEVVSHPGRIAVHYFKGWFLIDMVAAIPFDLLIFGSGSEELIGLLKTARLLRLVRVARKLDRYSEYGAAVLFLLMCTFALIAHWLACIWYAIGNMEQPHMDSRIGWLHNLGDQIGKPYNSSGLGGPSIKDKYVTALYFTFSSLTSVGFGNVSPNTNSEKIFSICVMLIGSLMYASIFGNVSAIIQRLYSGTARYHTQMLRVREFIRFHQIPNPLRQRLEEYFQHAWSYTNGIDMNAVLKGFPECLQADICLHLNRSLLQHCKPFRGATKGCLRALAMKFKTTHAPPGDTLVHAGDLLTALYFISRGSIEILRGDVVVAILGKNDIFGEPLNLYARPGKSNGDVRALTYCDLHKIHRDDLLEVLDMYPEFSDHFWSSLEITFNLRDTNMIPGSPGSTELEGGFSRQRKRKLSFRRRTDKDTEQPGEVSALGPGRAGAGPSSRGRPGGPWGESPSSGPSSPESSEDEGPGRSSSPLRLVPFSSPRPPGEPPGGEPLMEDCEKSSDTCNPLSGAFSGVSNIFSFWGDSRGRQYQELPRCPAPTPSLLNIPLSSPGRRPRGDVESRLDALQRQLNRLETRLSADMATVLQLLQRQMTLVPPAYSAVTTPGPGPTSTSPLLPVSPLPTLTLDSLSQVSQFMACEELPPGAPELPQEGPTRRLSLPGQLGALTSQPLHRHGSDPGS
row,SMILES,"hERG current change (%, negative = inhibition) at 10uM [%]"
1,COC(=O)c1cc(C(=O)OCC(=O)N2c3ccccc3NC(=O)C2(C)C)cc([N+](=O)[O-])c1,-38.2
2,O=C(COc1ccc2ccc(=O)oc2c1)NC1CCCC1,13.4
3,O=C(Nc1c(C(=O)Nc2cccc(F)c2)oc2ccccc12)c1ccc2c(c1)OCO2,-2.96
4,CCOC(=O)c1sc(NC(=O)CNC(=O)Cn2cnc3sc(C)c(C)c3c2=O)nc1C,9.53
5,Cc1nc(CCNC(=O)c2cccs2)cs1,-4.49
6,COc1ccc(CNC(=O)COC(=O)/C=C/c2cccc(Br)c2)cc1OC,30.1
7,COc1cccc(NC(=O)CSc2nnnn2C2CCCC2)c1,-10.1
8,C=C(C)CSc1nncn1/N=C/c1ccc(OC)cc1,8.05
9,O=C(CCNS(=O)(=O)c1ccccc1C(F)(F)F)NCC(c1ccco1)N1CCCCC1 (stereo not shown),0.519
10,Clc1ccc(-c2nnc(-c3cccc4ccccc34)o2)cc1Cl,14.5
11,C=CCC1CCCCC12NC(=O)NC2=O (stereo not shown),11.9
12,CCOC(=O)c1nnn(-c2nonc2N)c1-c1ccc(OC)cc1,-8.87
13,O=C(O)C1CCCCC1C(=O)NCCCn1ccnc1 (stereo not shown),6.28
14,Cc1cccc(C(=O)N2CCC(N3CCC(C(=O)N4CCOCC4)CC3)CC2)c1,-9.81
15,COc1ccc(C(=O)COc2ccc3ccc(=O)oc3c2)cc1,-3.32
16,CC(C)CC1NC(=S)N(C2CCCCC2)C1=O (stereo not shown),2.9
17,COc1ccc(CN(C)C2CCCCC2)cc1,-25.1
18,COc1ccc(N2C(=O)CC(Sc3n[nH]c(-c4ccccc4)n3)C2=O)cc1 (stereo not shown),-0.496
19,O=C(NCCS(=O)(=O)N1CCN(c2ccc(F)cc2)CC1)c1ccc2c(c1)OCO2,-9.49
20,O=c1c2ccccc2ncn1CCCSc1ccccc1,-37.6
21,CCNCC(=O)N1c2ccccc2CCc2ccc(NC(C)=O)cc21,32.8
22,CCOc1ccc(N(CC(=O)NCCc2ccccc2)C(=O)c2csnn2)cc1,-48.8
23,CCOC(=O)c1c(NC(=O)COC(=O)CCOc2ccc(OCC)cc2)sc(C(=O)N(C)C)c1C,-8.87
24,Cc1cc(=O)oc2cc(OCc3ccc(C(=O)OCC(=O)N(C)C4CCS(=O)(=O)C4)cc3)ccc12 (stereo not shown),-35.2
25,Cc1cc(C)c2oc(-c3cccc(NC(=O)c4ccc(F)cc4)c3)nc2c1,2.99
